{
  "source": "the supplement of paper PMC12645437",
  "about": "“Orthogonal IMiD-Degron Pairs Induce Selective Protein Degradation in Cells” (ACS Chemical Biology, 2025)",
  "sequences": {"B1": {"name": "Q9UKT9 (peptide)", "chain": "FQCNVCGAEFTQKGNLLRHIKL"}, "B2": {"name": "Q9UKT9 (peptide)", "chain": "LQCEICGFYCTQKGNLLRHIKL"}, "B3": {"name": "Q9UKT9 (peptide)", "chain": "FACPICGRVFTQKGNLLRHIKL"}, "B4": {"name": "Q9UKT9 (peptide)", "chain": "FQCNVCGAHFTQKGNLLRHIKL"}, "B5": {"name": "Q9UKT9 (peptide)", "chain": "FRCSVCGHCFTQKGNLLRHIKL"}, "B6": {"name": "Q9UKT9 (peptide)", "chain": "FYCEICGRIFTQKGNLLRHIKL"}, "B7": {"name": "Q9UKT9 (peptide)", "chain": "LTCEICGFWCTQKGNLLRHIKL"}, "B8": {"name": "Q9UKT9 (peptide)", "chain": "LFCEICGFMCTQKGNLLRHIKL"}, "B9": {"name": "Q9UKT9 (peptide)", "chain": "FSCEQCGAYFTQKGNLLRHIKL"}, "B10": {"name": "Q9UKT9 (peptide)", "chain": "FLCNQCGREFTQKGNLLRHIKL"}, "B11": {"name": "Q9UKT9 (peptide)", "chain": "FFCNVCGAFFTQKGNLLRHIKL"}, "B12": {"name": "Q9UKT9 (peptide)", "chain": "LICNQCGFTCTQKGNLLRHIKL"}, "B13": {"name": "Q9UKT9 (peptide)", "chain": "FSCEICGRIFTQKGNLLRHIKL"}, "B14": {"name": "Q9UKT9 (peptide)", "chain": "LKCEICGFRCTQKGNLLRHIKL"}, "B15": {"name": "Q9UKT9 (peptide)", "chain": "FLCNVCGAGFTQKGNLLRHIKL"}, "B16": {"name": "Q9UKT9 (peptide)", "chain": "FFCEICGHGFTQKGNLLRHIKL"}, "B17": {"name": "Q9UKT9 (peptide)", "chain": "FLCNVCGASFTQKGNLLRHIKL"}, "B18": {"name": "Q9UKT9 (peptide)", "chain": "FHCDVCGAEFTQKGNLLRHIKL"}, "B19": {"name": "Q9UKT9 (peptide)", "chain": "LWCNQCGFCCTQKGNLLRHIKL"}, "B20": {"name": "Q9UKT9 (peptide)", "chain": "FECPVCGAPFTQKGNLLRHIKL"}, "B21": {"name": "Q9UKT9 (peptide)", "chain": "FNCDQCGALFTQKGNLLRHIKL"}, "B22": {"name": "Q9UKT9 (peptide)", "chain": "FECNVCGAEFTQKGNLLRHIKL"}, "B23": {"name": "Q9UKT9 (peptide)", "chain": "FHCNQCGRLFTQKGNLLRHIKL"}, "B24": {"name": "Q9UKT9 (peptide)", "chain": "LQCEICGFMCTQKGNLLRHIKL"}, "B25": {"name": "Q9UKT9 (peptide)", "chain": "FVCEQCGAGFTQKGNLLRHIKL"}, "B26": {"name": "Q9UKT9 (peptide)", "chain": "FFCEICGRPFTQKGNLLRHIKL"}, "B27": {"name": "Q9UKT9 (peptide)", "chain": "FVCPICGHEFTQKGNLLRHIKL"}, "B28": {"name": "Q9UKT9 (peptide)", "chain": "FDCEICGRIFTQKGNLLRHIKL"}, "B29": {"name": "Q9UKT9 (peptide)", "chain": "LWCNQCGFQCTQKGNLLRHIKL"}, "B30": {"name": "Q9UKT9 (peptide)", "chain": "FTCDQCGAKFTQKGNLLRHIKL"}, "B31": {"name": "Q9UKT9 (peptide)", "chain": "FSCEVCGAPFTQKGNLLRHIKL"}, "B32": {"name": "Q9UKT9 (peptide)", "chain": "FMCNQCGANFTQKGNLLRHIKL"}, "B33": {"name": "Q9UKT9 (peptide)", "chain": "FWCDQCGAWFTQKGNLLRHIKL"}, "B34": {"name": "Q9UKT9 (peptide)", "chain": "FWCPVCGADFTQKGNLLRHIKL"}, "B35": {"name": "Q9UKT9 (peptide)", "chain": "FNCPVCGAVFTQKGNLLRHIKL"}, "B36": {"name": "Q9UKT9 (peptide)", "chain": "FICPVCGAYFTQKGNLLRHIKL"}, "B37": {"name": "Q9UKT9 (peptide)", "chain": "FFCNQCGAMFTQKGNLLRHIKL"}, "B38": {"name": "Q9UKT9 (peptide)", "chain": "FICEICGRNFTQKGNLLRHIKL"}, "B39": {"name": "Q9UKT9 (peptide)", "chain": "FCCPQCGACFTQKGNLLRHIKL"}, "B40": {"name": "Q9UKT9 (peptide)", "chain": "FECSVCGHMFTQKGNLLRHIKL"}, "B41": {"name": "Q9UKT9 (peptide)", "chain": "FYCEQCGAKFTQKGNLLRHIKL"}, "B42": {"name": "Q9UKT9 (peptide)", "chain": "FVCEICGRMFTQKGNLLRHIKL"}, "B43": {"name": "Q9UKT9 (peptide)", "chain": "FECDQCGASFTQKGNLLRHIKL"}, "B44": {"name": "Q9UKT9 (peptide)", "chain": "FECDVCGAHFTQKGNLLRHIKL"}, "B45": {"name": "Q9UKT9 (peptide)", "chain": "FYCNQCGRFFTQKGNLLRHIKL"}, "B46": {"name": "Q9UKT9 (peptide)", "chain": "FFCNQCGRTFTQKGNLLRHIKL"}, "B47": {"name": "Q9UKT9 (peptide)", "chain": "FECSVCGHRFTQKGNLLRHIKL"}, "B48": {"name": "Q9UKT9 (peptide)", "chain": "FTCPVCGAEFTQKGNLLRHIKL"}, "B49": {"name": "Q9UKT9 (peptide)", "chain": "FGCNQCGREFTQKGNLLRHIKL"}, "B50": {"name": "Q9UKT9 (peptide)", "chain": "FFCPVCGAWFTQKGNLLRHIKL"}},
  "note": "This is one part of the list.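 Also: jurkat cells carrying a lentiviral library of mutant zinc finger degrons fused to EGFP plus mCherry, mCherry+ cells FACS sorted, degron abundance counted by next-generation sequencing.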",
  "data": [
    {"biological_target": "no compound (DMSO)", "test": "log2 fold change of degron read counts, EGFP-low vs EGFP+ sorted cells; higher = lower degron-EGFP level without compound (poor expression or instability)", "conditions": "compound: DMSO control; 18 h", "values": [
      {"sequence": "B1", "log2 fold change of degron read counts": -1.84},
      {"sequence": "B2", "log2 fold change of degron read counts": 0.484},
      {"sequence": "B3", "log2 fold change of degron read counts": 0.569},
      {"sequence": "B4", "log2 fold change of degron read counts": -0.344},
      {"sequence": "B5", "log2 fold change of degron read counts": -0.363},
      {"sequence": "B6", "log2 fold change of degron read counts": 0.309},
      {"sequence": "B7", "log2 fold change of degron read counts": 0.565},
      {"sequence": "B8", "log2 fold change of degron read counts": 0.714},
      {"sequence": "B9", "log2 fold change of degron read counts": -0.748},
      {"sequence": "B10", "log2 fold change of degron read counts": -1.7},
      {"sequence": "B11", "log2 fold change of degron read counts": 0.964},
      {"sequence": "B12", "log2 fold change of degron read counts": -0.029},
      {"sequence": "B13", "log2 fold change of degron read counts": -0.367},
      {"sequence": "B14", "log2 fold change of degron read counts": 0.0214},
      {"sequence": "B15", "log2 fold change of degron read counts": -1.11},
      {"sequence": "B16", "log2 fold change of degron read counts": -0.908},
      {"sequence": "B17", "log2 fold change of degron read counts": -0.221},
      {"sequence": "B18", "log2 fold change of degron read counts": -2.4},
      {"sequence": "B19", "log2 fold change of degron read counts": 2.02},
      {"sequence": "B20", "log2 fold change of degron read counts": -0.304},
      {"sequence": "B21", "log2 fold change of degron read counts": -0.129},
      {"sequence": "B22", "log2 fold change of degron read counts": -1.94},
      {"sequence": "B23", "log2 fold change of degron read counts": 0.658},
      {"sequence": "B24", "log2 fold change of degron read counts": -0.0161},
      {"sequence": "B25", "log2 fold change of degron read counts": -0.91},
      {"sequence": "B26", "log2 fold change of degron read counts": -0.252},
      {"sequence": "B27", "log2 fold change of degron read counts": -0.477},
      {"sequence": "B28", "log2 fold change of degron read counts": -0.463},
      {"sequence": "B29", "log2 fold change of degron read counts": 1.1},
      {"sequence": "B30", "log2 fold change of degron read counts": -1.15},
      {"sequence": "B31", "log2 fold change of degron read counts": -1.48},
      {"sequence": "B32", "log2 fold change of degron read counts": -0.475},
      {"sequence": "B33", "log2 fold change of degron read counts": 1.43},
      {"sequence": "B34", "log2 fold change of degron read counts": 0.675},
      {"sequence": "B35", "log2 fold change of degron read counts": -0.155},
      {"sequence": "B36", "log2 fold change of degron read counts": 0.615},
      {"sequence": "B37", "log2 fold change of degron read counts": 0.363},
      {"sequence": "B38", "log2 fold change of degron read counts": -0.787},
      {"sequence": "B39", "log2 fold change of degron read counts": -0.519},
      {"sequence": "B40", "log2 fold change of degron read counts": -0.83},
      {"sequence": "B41", "log2 fold change of degron read counts": -1.72},
      {"sequence": "B42", "log2 fold change of degron read counts": -1.45},
      {"sequence": "B43", "log2 fold change of degron read counts": -1.85},
      {"sequence": "B44", "log2 fold change of degron read counts": -3.17},
      {"sequence": "B45", "log2 fold change of degron read counts": 0.773},
      {"sequence": "B46", "log2 fold change of degron read counts": -0.0181},
      {"sequence": "B47", "log2 fold change of degron read counts": -2.48},
      {"sequence": "B48", "log2 fold change of degron read counts": -1.44},
      {"sequence": "B49", "log2 fold change of degron read counts": -0.442},
      {"sequence": "B50", "log2 fold change of degron read counts": 1.3}
    ]}
  ]
}
